In all, about 150,000 compounds went through this assay and about 540 (0.36%) showed an effect of 50% or more. Some of the results follow.
Tested on: Plasmodium falciparum
Assay: Primary screen in NF54 nanoGlo assay, in single point, at 2uM, 72h; a lower Z score goes with more inhibition
Type: functional, Erythrocyte
Details: timepoint 72 hour

| SMILES | % Inhibition | Z score |
| --- | --- | --- |
| O=C(Nc1ccc(N2C(=O)c3ccccc3C2=O)cc1Cl)c1ccc(N2C(=O)c3ccccc3C2=O)cc1 | -38% | 4.44 |
| CCc1nc2c(c(=O)[nH]1)C[C@H]1CC[C@@H](C2)N1C(=O)Nc1cccc(C(F)(F)F)c1 | -22% | 3.07 |
| CCS(=O)(=O)N1CCC[C@H](C(=O)N2CCCc3ccccc32)C1 | -13% | 1.83 |
| Cc1cc(F)ccc1S(=O)(=O)N1CC[C@H](c2cnccn2)C1 | -11% | 2 |
| OB(O)[C@H]1CCN(Cc2cc3n(n2)CCC3)C1 | 0% | 0.03 |
| CC1(C)OCC2(CO1)CN(C(=O)NCc1ccccc1)C2 | -4% | 0.65 |
| Cc1cccc(N2C(=O)C3CC3C2=O)c1 (stereo not drawn) | 38% | -4.88 |
| O=C(c1cc(-c2ccccc2)on1)N1C2C=CCC1CC2 (stereo not drawn) | -13% | 2.21 |
| CN(C)[C@H]1CCCN(CCCc2ccco2)CC1 | -2% | 0.26 |
| CCC[C@H]1CN(Cc2cnc(COC)nc2)C[C@@H]1N(C)C | -8% | 1.05 |
| O=C(c1ccc(Cn2cncn2)cc1)N1C[C@@H](C2CC2)C[C@H]1C1CC1 | 5% | -0.72 |
| C[C@H]1CN(S(=O)(=O)N2CCc3ccccc3C2)CCN1S(=O)(=O)N1CCc2ccccc2C1 | -1% | 0.11 |
| CC(C)CCC(=O)NCCn1ccccc1=O | -9% | 1.78 |
| Cc1ccc(C)c(S(=O)(=O)Nc2ccc(N3CCC[C@H](CN4CCCC4)C3)c(C(=O)O)c2)c1 | 3% | -0.33 |
| C=CCNC(=O)N1CCc2nc(N3CCCCC3)nc(N3CCCCC3)c2C1 | 2% | -0.28 |
| CCc1nc(CN2CC[C@]3(O)CCN(C(=O)N4CCCC4)C[C@@H]3C2)cs1 | -2% | 0.34 |
| Cc1cccc(C(=O)Nc2cc(S(=O)(=O)N3CCOCC3)ccc2N2CCCC2)c1 | -2% | 0.32 |
| Cc1cnc(CCN(C)Cc2nncn2C)s1 | -10% | 1.75 |
| COc1ccc(-c2cc(NCCO)nc(N)n2)c(-n2cccn2)c1 | 1% | -0.18 |
| CCOc1ccccc1C(=O)NCN1CCN(c2ccc(OC)cc2)CC1 | 3% | -0.33 |
| COc1ccccc1C1(CN=C(N)N2CCOCC2)CCC1 | -2% | 0.18 |
| O=C(N[C@@H]1CN(C(=O)CCCc2ccccc2)C[C@H]1CO)c1ccccc1 | 2% | -0.27 |
| CN(C)CCC(=O)c1cccc(Br)c1 | -3% | 0.35 |
| CN(C[C@@H]1CCCO1)C(=O)CCn1ccnn1 | -6% | 1.11 |
| CC(=O)Nc1ccc2nc(N3CCC(C(=O)NCCCc4ccccc4)CC3)cc(C)c2c1 | -5% | 0.71 |
| Cc1cc(C(=O)N2CCC[C@@]3(CNC(=O)O3)C2)cc(=O)[nH]1 | -9% | 0.92 |
| O=C(c1ccco1)n1nc(NCc2cccc3ccccc23)nc1NCc1cccc2ccccc12 | -6% | 0.83 |

| SMILES | % Inhibition | Z score |
| --- | --- | --- |
| Cc1nnnn1C[C@@H](O)CC1CCCC1 | -12% | 1.71 |
| COC(=O)CC(NC(C)=O)C(=O)N1CCCC1C(F)(F)F (stereo not drawn) | -2% | 0.27 |
| COc1ccccc1N1CCN(Cc2cc(=O)[nH]c(C(C)C)n2)CC1 | -18% | 1.61 |
| O=C(CCC(=O)NCc1cccs1)NCc1ccc2c(c1)OCO2 | 31% | -3.97 |
| OCC1(CNc2cc3c(nn2)-c2ccccc2CCC3)CCOCC1 | -1% | 0.09 |
| Cc1c(-c2ccc(F)cc2)nn(C2CCCC2)c1-c1ccc(F)cc1 | 25% | -2.88 |
| Brc1ccc(OCCN2CCC[C@H]2c2nnc3ccccn23)cc1 | 2% | -0.29 |
| CC(C)C1OCCC1CNC(=O)c1ccoc1 (stereo not drawn) | -6% | 0.75 |
| CCNC(=O)C1Cc2cc(C(F)(F)F)ccc2N2CCN(CC(=O)N3CCOCC3)CC12 (stereo not drawn) | -2% | 0.35 |
| O=S(=O)(NCCc1cnccn1)c1c(F)c(F)cc(F)c1F | -10% | 2.06 |
| CC(C)c1nsc(N2CCN(Cc3ccccc3)CC2)n1 | 14% | -1.57 |
| O=C(CCc1cn[nH]c1)N1CC[C@@]2(CCCN(CCC3CCCCC3)C2)C1 | -4% | 0.36 |
| CN(CC1CCC1)C(=O)[C@@H]1CCCN1C(=O)C1CCCC1 | -8% | 1.17 |
| O=C(NCCCN1Cc2ccccc2C1)c1cnc(-c2ccccn2)nc1O | -12% | 1.65 |
| CCn1cc(S(=O)(=O)N2CCCN(C(=O)C(C)C)CC2)cn1 | -14% | 1.8 |
| COc1ccc(CNC(=O)N2CCOC3CCCC32)cc1OC (stereo not drawn) | -12% | 1.81 |
| O=C(N[C@@H]1[C@@H]2CCO[C@@H]2[C@H]1N1CCCC1)c1cc2c(s1)CCCCC2 | -10% | 1.32 |
| CCCNC(=O)c1cn(CCC)c2nc(C)ccc2c1=O | -3% | 0.37 |
| COc1ccc(CN2C(=O)[C@](NC(=O)C3CCCCC3)(C(F)(F)F)N=C2c2ccccc2)cc1 | -9% | 1.02 |
| CCN(CC)C(=O)N1CCC[C@H](c2nccn2C(C)C)C1 | -15% | 1.87 |
| O=C(c1nc2ccccc2cc1C1CC1)N1CCCn2nnnc21 | -8% | 1.16 |
| CCc1cc(C)nc(NC[C@]2(OC)CCS(=O)(=O)C2)n1 | -5% | 0.61 |
| C#CCC1(C(=O)NCC(O)C(C)C)CCCN1C(=O)OC(C)(C)C (stereo not drawn) | 2% | -0.28 |
| CN(C)c1ccc(C#N)c(NS(=O)(=O)CCCC(F)(F)F)c1 | -9% | 1.02 |
| O=C1[C@@H]2CCCCCN2C(=O)N1c1ccc2c(c1)OCO2 | -7% | 1.08 |
| COc1cccc(C(=O)N2C[C@@H]3COCCN3C3(CN(Cc4c[nH]cn4)C3)C2)c1 | -7% | 1.13 |
| C[C@@H](C(=O)N1CCc2ccccc2C1)N(c1ccc2c(c1)OCCO2)S(C)(=O)=O | -8% | 1.24 |

From ChEMBL document CHEMBL4888484, “Replenishing the malaria drug discovery pipeline: Screening and hit evaluation of the MMV Hit Generation Library 1 (HGL1) against asexual blood stage Plasmodium falciparum ,using a nano luciferase reporter read-out” (2022)
